Experimental data as given in PMC10763179 (Open access Macedonian journal of medical sciences, 2023).

Test system: HL-60(TB)
Test: NCI60 screen
Type: cell-based, human
Settings: Leukemia, single dose 8.3 μM

## C=C1C(=O)O[C@@H]2[C@H]3C(C)=CC[C@@]34O[C@@]4(C)CC[C@@H]12 [Arglabin 6, arglabin]
  Growth of tumor cells, %: 2.63%
